# Measurements reported in PubChem BioAssay AID1460 (National Center for Advancing Translational Sciences (NCATS), 2008).
# The whole screen tested about 270,000 compounds, of which about 5,800 (2.1%) were called active. The shares of active, inactive and inconclusive entries below differ from those in the screen. The call rests on the fitted dose curve; in most records, active means well fitted inhibition curve with a large enough effect; inconclusive means small, poorly fitted or top-dose-only effect; inactive means flat fitted curve, though single readings scatter. Where the call is inconclusive, the potency comes from a doubtful curve fit.
# Biological target: Microtubule-associated protein tau (Homo sapiens) (UniProt P10636)
# UniProt P10636, sequence (P10636 whole entry, looked up): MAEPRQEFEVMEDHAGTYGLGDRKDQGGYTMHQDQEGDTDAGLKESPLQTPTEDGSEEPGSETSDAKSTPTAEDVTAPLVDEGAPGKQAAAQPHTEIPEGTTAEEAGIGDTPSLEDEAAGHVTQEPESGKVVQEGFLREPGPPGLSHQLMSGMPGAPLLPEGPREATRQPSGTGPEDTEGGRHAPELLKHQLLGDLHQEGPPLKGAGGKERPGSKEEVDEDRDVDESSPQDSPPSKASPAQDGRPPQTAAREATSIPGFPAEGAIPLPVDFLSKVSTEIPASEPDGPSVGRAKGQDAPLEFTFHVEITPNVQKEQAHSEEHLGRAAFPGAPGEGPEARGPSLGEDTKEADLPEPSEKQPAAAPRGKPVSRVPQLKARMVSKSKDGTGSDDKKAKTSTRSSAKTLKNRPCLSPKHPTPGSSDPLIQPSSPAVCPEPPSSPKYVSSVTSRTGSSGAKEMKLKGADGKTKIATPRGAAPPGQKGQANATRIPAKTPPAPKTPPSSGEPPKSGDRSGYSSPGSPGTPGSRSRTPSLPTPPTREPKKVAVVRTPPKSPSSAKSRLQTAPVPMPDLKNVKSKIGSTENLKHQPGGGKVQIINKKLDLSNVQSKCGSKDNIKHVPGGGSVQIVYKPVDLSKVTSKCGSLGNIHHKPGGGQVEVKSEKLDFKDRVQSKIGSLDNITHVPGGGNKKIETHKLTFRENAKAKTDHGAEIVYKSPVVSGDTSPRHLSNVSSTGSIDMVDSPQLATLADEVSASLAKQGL
# Experiment: qHTS for Inhibitors of Tau Fibril Formation, Thioflavin T Binding; further: nearly all actives have a fitted effect of over 55% in size
# Details: recombinant tau K18 P301L (four-repeat tau fragment), heparin-induced fibrillization, ThT fluorescence; series mostly up to 57.4 µM
# In short: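 Tau K18 P301L fragment (15 uM unlabeled plus 0.24 uM Alexa 594-labeled) in 100 mM sodium acetate pH 7 with compound, fibrillization induced by 20 uM heparin for 6 hr at 37 C. Thioflavin T (30 uM) added, fluorescence read after 1 hr (ex 450, em 510 nm).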
# Potency means the concentration at half of the fitted maximal effect; tags describe the fitted curve by direction and shape.
row,Structure (SMILES),Potency
1,CCCC(=O)Nc1ccc(C(=O)NNC(=S)NC(=O)c2ccc(Br)o2)cc1,"inconclusive: 15.8 µM [inhibitor, partial curve]"
2,O=C(CN1CCN(Cc2ccccc2)CC1)Nc1ccccc1-c1ccccc1,"inconclusive: 20 µM [inhibitor, single point]"
3,CC1(C)Cc2c(C#N)c(N3CCCC3)nc(-c3ccco3)c2CO1,"inconclusive: 28.2 µM [inhibitor, partial curve]"
4,Cc1ccc(C2=NN=C(NC(=O)CSc3nnc4c5ccccc5n(C)c4n3)SC2)cc1,active: 2.82 µM
5,CC(C)(C)OC(=O)NCCCCCC(=O)N/N=C/c1coc2ccccc2c1=O,"inconclusive: 22.4 µM [inhibitor, partial curve]"
6,N#Cc1cc(N)ccc1Sc1ccccc1,inactive
7,O=C(NCc1nc2ccccc2[nH]1)c1ccc(Cl)c(S(=O)(=O)N2CCCC2)c1,inactive
8,COc1cc(/C=N\NC(=O)c2ccc(Cn3nc([N+](=O)[O-])c(Cl)c3C)o2)ccc1O,"inconclusive: 28.2 µM [inhibitor, partial curve]"
9,COc1ccccc1N1CCN(C(=O)CSc2nnc3c4ccccc4nc(Cc4ccccc4)n23)CC1,"inconclusive: 31.6 µM [inhibitor, single point]"
10,COCCCNC(=O)CSc1nc(-c2ccc(OC)cc2)[nH]c1-c1ccc(OC)cc1,"inconclusive: 25.1 µM [inhibitor, single point]"
11,CCN1CCN(c2cc(C)c3cc(NC(=O)c4cc(Br)ccc4Cl)ccc3n2)CC1,"inconclusive: 17.8 µM [inhibitor, partial curve]"
12,CC(C)(C)NCC(O)COc1nsnc1N1CCOCC1 (stereo unspecified),inactive
13,O=C1c2ccccc2CCC12N=NCC2c1ccc(Cl)cc1 (stereo unspecified),"inconclusive: 39.8 µM [inhibitor, single point]"
14,CCN1/C(=C/c2ccc3cc(C)ccc3[n+]2C)Sc2ccc3sccc3c21,active: 1.58 µM
15,CCC1CN(C(=O)N2CCC(C(=O)NCCCc3ccccc3)CC2)c2ccccc2O1 (stereo unspecified),inactive
16,O=C(/C=C/c1ccc([N+](=O)[O-])cc1)c1cccs1,"inconclusive: 10 µM [inhibitor, partial curve]"
17,CCOc1cc(C2C(C#N)=C(N)Oc3n[nH]c(-c4ccncc4)c32)cc([N+](=O)[O-])c1O (stereo unspecified),"inconclusive: 14.1 µM [inhibitor, partial curve]"
18,COc1ccc(C(=O)NCC(=O)OCC(=O)N2CCc3ccccc32)cc1,"inconclusive: 11.2 µM [inhibitor, partial curve]"
19,Cc1ccn2c(NC(=O)C(C)(C)Oc3ccc(Cl)cc3)c(-c3cccs3)nc2c1,"inconclusive: 44.7 µM [inhibitor, single point]"
20,Cc1ccc(NC(=O)CSc2ncc3c(n2)-c2ccccc2N(C)S3(=O)=O)c(Cl)c1,inactive
21,CC(=O)NC1(C(F)(F)F)C(=O)NC(C)=C1C#N (stereo unspecified),"inconclusive: 15.8 µM [inhibitor, partial curve]"
22,CN(C)C(=O)c1sccc1Oc1ccc(F)cc1[N+](=O)[O-],inactive
23,Cc1ccc(S(=O)(=O)NCC(=O)OCC(=O)NC(=O)c2cccn2C)cc1,"inconclusive: 20 µM [inhibitor, partial curve]"
24,Cc1cc(=O)n2nc(N3CCC(C(=O)NCc4ccccc4F)CC3)sc2n1,"inconclusive: 15.8 µM [inhibitor, partial curve]"

row,Structure (SMILES),Potency
1,N#Cc1c(C(F)(F)F)cc(-c2ccco2)nc1SCc1ccncc1,"inconclusive: 15.8 µM [inhibitor, partial curve]"
2,Cc1ccc(-c2nc(C)c(CCNC(=O)C(=O)Nc3ccc(C)c(Cl)c3)s2)cc1,"inconclusive: 1.26 µM [inhibitor, full curve]"
3,CC(=O)Nc1ccccc1OCc1cc(=O)n2c(C)csc2n1,inactive
4,Cc1ccc(C(=O)CSc2nc3ccccc3c(=O)[nH]2)cc1C,"inconclusive: 2.82 µM [inhibitor, partial curve]"
5,COc1cc(N2CCCC2)c(OC)cc1/C=C1/NC(=S)NC1=O,active: 11.2 µM
6,CCN(CC)c1nc(N)nc(N(c2ccccc2)c2ccccc2)n1,"inconclusive: 39.8 µM [inhibitor, single point]"
7,CN1CCN(c2ccccc2NC(=O)c2ccc(N3CCCCC3)c([N+](=O)[O-])c2)CC1,"inconclusive: 14.1 µM [inhibitor, partial curve]"
8,CC(=O)N1c2ccc(S(=O)(=O)NCc3ccc(Cl)cc3)cc2CC1C (stereo unspecified),inactive
9,CCOc1ccc(NS(=O)(=O)c2ccc3[nH]cc(C(=O)NC(C)CC)c(=O)c3c2)cc1 (stereo unspecified),inactive
10,O=C(NC(=S)Nc1cccc(F)c1)c1cccc([N+](=O)[O-])c1,"inconclusive: 28.2 µM [inhibitor, single point]"
11,CCN(CC)CC(=O)Nc1cccc2c1C(=O)c1ccccc1C2=O,inactive
12,CN(C(=O)CSc1nc2ccc(NC(=O)COc3ccc(F)cc3)cc2s1)c1ccccc1,inactive
13,O=C(c1ccccc1Cl)N1CCCC(c2nc3c(nnn3Cc3ccc(F)cc3F)c(=O)[nH]2)C1 (stereo unspecified),"inconclusive: 4.47 µM [inhibitor, full curve]"
14,CC(C)Sc1ncc(Cl)c(C(=O)Nc2nc3ccc(S(C)(=O)=O)cc3s2)n1,inactive
15,O=C(N/C(=C/c1ccc(Cl)cc1)c1nc2ccccc2[nH]1)c1ccco1,inactive
16,CC(C)c1cccc(C(C)C)c1NC(=O)CNCc1ccccc1F,inactive
17,COc1cc(/C=C2\SC(=O)N(c3ccccc3Cl)C2=O)cc([N+](=O)[O-])c1O,active: 3.98 µM
18,CCOc1ccc(NC(=O)CC2Nc3cccc4cccc(c34)NC2=O)cc1 (stereo unspecified),active: 14.1 µM
19,Cc1ccc(CCC(=O)Nc2ncc(Cc3cccc(Cl)c3Cl)s2)o1,inactive
20,N#C/C(=C/c1cn(CC(=O)O)c2ccccc12)C(=O)Nc1ccccc1,"inconclusive: 7.08 µM [inhibitor, full curve]"
21,Cc1ccc(NCc2cccn2-c2nnc(N3CCC(C(=O)NCc4ccccc4C)CC3)s2)cc1,"inconclusive: 8.91 µM [inhibitor, partial curve]"
22,Cc1c(C(=O)N2CCC(C)CC2)c(S(=O)(=O)Nc2cccc(C#N)c2)c(C)n1C,inactive
23,COc1cccc(/C=N/NC(=O)CNC(=O)c2ccc3c(c2)OCCO3)c1O,"inconclusive: 17.8 µM [inhibitor, partial curve]"
24,COCCN1CN(S(=O)(=O)c2ccc(Cl)cc2)c2nc3ccccc3nc21,inactive

row,Structure (SMILES),Potency
1,COc1cccc(OC)c1NC(=O)CN1CCC(NC(=O)c2cccc(F)c2)CC1,inactive
2,COC(=O)CC1=NN(c2ccc(OC)cc2)C(=O)/C1=C\c1ccc(Cl)cc1,"inconclusive: 25.1 µM [inhibitor, partial curve]"
3,CN1CCC(=NNC(=O)c2cc(-c3ccc(Cl)cc3)n[nH]2)CC1,"inconclusive: 0.398 µM [inhibitor, partial curve, poor fit]"
4,CC(=O)c1ccc2c3c(cccc13)CC2,inactive
5,CCOC(=O)C1CCN(c2c([N+](=O)[O-])c(C(Cl)Cl)nn2-c2ccccc2)CC1,"inconclusive: 31.6 µM [inhibitor, single point]"
6,CC(C)n1c(S(=O)(=O)O)nc2ccccc21,inactive
7,CCN(Cc1ccccc1)c1ccc(/C=N/NS(=O)(=O)c2ccc(C)c([N+](=O)[O-])c2)cc1,"inconclusive: 28.2 µM [inhibitor, single point]"
8,COc1ccc(NC(=O)C2CC(=O)N/C(=N/NC(=O)c3ccc(Cl)cc3)S2)cc1 (stereo unspecified),"inconclusive: 17.8 µM [inhibitor, single point]"
9,OCCN(Cc1ccccc1)Cc1ccccc1F,inactive
10,CN(C)CCCc1cc(C(=O)Nc2ccc(-c3ccncc3)cc2)ccc1O,"inconclusive: 22.4 µM [activator, partial curve]"
11,Cn1cccc1/C=N/NC(=O)CNc1cccc2ccccc12,"inconclusive: 14.1 µM [inhibitor, partial curve]"
12,O=C(CCN1C(=O)c2ccccc2C1=O)Nc1ccc(-c2nc3ccccc3o2)cc1,"inconclusive: 39.8 µM [inhibitor, single point]"
13,CSc1ccccc1-c1nnc(-c2ccc(Cl)cc2)o1,"inconclusive: 20 µM [inhibitor, partial curve]"
14,COc1ccc(NC(=O)c2cc3c(=O)n(Cc4cccs4)ccc3nc2C)c(OC)c1,"inconclusive: 22.4 µM [inhibitor, single point]"
15,COc1ccccc1NC(=O)C1=C(C)Nc2nnnn2C1c1ccccc1OC (stereo unspecified),inactive
16,Cc1ccc(OCCN2C(=O)C(=O)c3cc(C)ccc32)cc1,"inconclusive: 10 µM [inhibitor, partial curve]"
17,Cc1ccc(CNC(=O)CCCNC(=O)c2ccc(Cl)cc2)n1C,"inconclusive: 25.1 µM [inhibitor, single point]"
18,Cc1cccc(CSc2nnc(-c3ccco3)o2)c1,inactive
19,CCN(CC)S(=O)(=O)c1ccc(N2CCOCC2)c(NC(=O)C(=O)c2c(-c3ccccc3)cc3ccccn23)c1,"inconclusive: 17.8 µM [inhibitor, partial curve]"
20,COCC(C)N=C1NN=C(c2c[nH]c3ccccc23)CS1 (stereo unspecified),inactive
21,O=c1cc(CSc2nnc(NC3CCCCC3)s2)nc2sccn12,inactive
22,CC(C)(C)C(=O)Nc1ccc(N2CCCC2)cc1,"inconclusive: 15.8 µM [inhibitor, partial curve]"
23,COc1ccc(-c2ccc(SCC(=O)N3c4ccccc4CC3C)nn2)cc1OC (stereo unspecified),"inconclusive: 17.8 µM [inhibitor, partial curve]"
